Structures are written as SMILES. About 6,900 (2%) of roughly 340,000 compounds were called active. Cut-off read from the data, not from the text of the source: active = inhibition above about 30%; inactive = below that, where a call was filed. The list shows a part of the results, in another mix than the full data. The source gives no active or inactive call for entries shown without one.

A word on the inhibition: it is the relative decrease from the control value, in per cent.

Sequence of UniProt P14416 (P14416 whole entry, looked up): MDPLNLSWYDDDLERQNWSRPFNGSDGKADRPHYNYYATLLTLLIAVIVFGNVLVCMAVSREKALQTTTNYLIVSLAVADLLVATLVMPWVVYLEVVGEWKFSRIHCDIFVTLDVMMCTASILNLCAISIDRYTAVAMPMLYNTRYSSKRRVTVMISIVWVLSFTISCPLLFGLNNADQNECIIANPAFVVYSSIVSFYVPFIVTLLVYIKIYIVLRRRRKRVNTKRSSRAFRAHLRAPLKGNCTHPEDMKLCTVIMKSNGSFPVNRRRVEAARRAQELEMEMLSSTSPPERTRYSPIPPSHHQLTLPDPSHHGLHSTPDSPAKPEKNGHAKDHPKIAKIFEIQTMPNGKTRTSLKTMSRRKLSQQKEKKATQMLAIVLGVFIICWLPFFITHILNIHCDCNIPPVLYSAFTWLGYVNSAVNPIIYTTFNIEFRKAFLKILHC

This test concerns the target D(2) dopamine receptor (Homo sapiens) (UniProt P14416). Nature of the test: HTS Assay for Allosteric Antagonists of the Human D2 Dopamine Receptor: Primary Screen for Antagonists. Note: 0% is about no effect. As to conditions: HEK293 TREx D2 cells, calcium flux, dopamine EC80; at 10 µM; stronger effect = higher value. The gist of the method:
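Tetracycline-induced HEK293 TREx cells expressing D2 receptor forced-coupled to calcium signalling, loaded with no-wash calcium dye. Compounds added and calcium flux read 180 s, then dopamine added at EC80 and read a further 180 s.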
(Calcium flux is commonly read through the fluorescence of an indicator in the cells.)
With `CC1CCN(S(=O)(=O)c2ccc3c(c2)N(C)C(=O)CC(=O)N3C)CC1`, the inhibition amounted to 5.5%.

For `COc1ccc(Cl)cc1NC(=O)CN(C)C(=O)c1cc2c(F)cccc2s1`, the inhibition is active: 30.9%.

Turning to `CC(C)Oc1ccc(CNC(=O)C(C)n2ccc3cc(S(=O)(=O)N4CCCCCC4)ccc32)cc1` (stereo unspecified), the inhibition is 0.651%.

Regarding `Cc1ccc(-n2c(=O)c3c(cnn3C)n(CC(=O)Nc3cccc(Cl)c3)c2=O)cc1`, the inhibition turned out to be 6.82%.

As to `CCC(C(=O)NCCc1ccc(OC)c(OC)c1OC)n1nc(C)c2sc3ccccc3c2c1=O` (stereo unspecified), the inhibition was 20.8%.

`Cc1ccc(CSc2nc3ccccc3c3nc(CCn4c(C)nc5ccccc54)nn23)cc1`: the inhibition is 15.2%.

With `CCOc1ccc(NC(=O)c2ccc3c(=O)n4c(nc3c2)CCCCC4)cc1`, the inhibition was found to be 9.73%.

As for `Cc1ccc(C)c(N2CCN(CCCNC(=O)c3cnn(-c4cccc(Cl)c4)c3C3CCN(C(=O)OC(C)(C)C)CC3)CC2)c1`, the inhibition amounted to 17.7%.

As to `Cc1cc(C)cc(NC(=O)C(C)N2Cc3ccccc3C2=O)c1` (stereo unspecified), the inhibition was -7.7%.

Regarding `CCOC(=O)c1[nH]c2ccccc2c1NC(=O)c1ccc(C)c(C)c1`, the inhibition amounted to 16.1%.

Take `Cc1noc(Cn2c(=O)c3ccccc3n(CC(=O)Nc3cc(Cl)ccc3C)c2=O)n1`: the inhibition is 7.51%.

With `O=C(CSc1n[nH]c(-c2ccccc2)n1)N1CCN(c2ccc(F)cc2)CC1`, the inhibition is -3.87%.

`Cc1ccc(-c2nnc(Nc3ccc(OCC(N)=O)cc3)c3ccccc23)cc1S(=O)(=O)NCC1CCCO1` (stereo unspecified): the inhibition came out at 11.6%.

As to `CCOC(=O)C1CCN(C(=O)Cc2c(F)cccc2Cl)CC1`, the inhibition was active: 30.8%.

On to `O=C(CCn1cnc2onc(-c3ccc(F)cc3)c2c1=O)Nc1cccc(C(F)(F)F)c1`, for which the inhibition was -1.21%.

For `Cc1ccc(C(=O)NC2CCCCC2)cc1`, the inhibition was active: 61.5%.

As to `CC(C)N1CCc2c(sc(NC(=O)CCS(=O)(=O)c3ccccc3)c2C#N)C1`, the inhibition is active: 33.7%.

In the case of `Cc1ccn2c(Nc3ccccc3)c(-c3c[nH]c4ccccc34)nc2c1`, the inhibition is -7.03%.

As to `Cc1cc(C)cc(NC(=O)C(=O)NCCc2sc(-c3cccc(F)c3)nc2C)c1`, the inhibition was -18.5%.

With `CC(=O)Nc1ccc(NC(=O)c2ccc3c(c2)CCN3S(=O)(=O)c2ccc(C)cc2)cc1`, the inhibition worked out at 11.8%.

As for `COc1ccc(C)cc1NC(=O)N(C(C)C)C1CCN(C(C)=O)CC1`, the inhibition was 15.2%.

`Cc1ccc(-c2nnc3ccccc3c2C(=O)Nc2ccc(F)cc2)cc1`: the inhibition came to 11.8%.

For `COc1ccc(C(C)=O)cc1CSc1nc(Nc2ccc(F)c(F)c2)c2ccccc2n1`, the inhibition was -2.65%.

Regarding `O=C(O)c1cc(-c2ccccc2)nn1Cc1ccccc1`, the inhibition is 12.1%.

In the case of `COc1ccccc1Nc1nn2c(=O)c3ccc(C(=O)NCCc4ccccc4)cc3nc2s1`, the inhibition was 0.459%.

As for `Cc1ccc(N2CCN(c3nc4ccc(C(=O)c5ccccc5)cc4n4cnnc34)CC2)c(C)c1`, the inhibition was found to be 2.31%.

Values taken from PubChem BioAssay AID485344 (National Center for Advancing Translational Sciences (NCATS), 2010).
